# The supplement of paper PMC4967469
# Key:
# Assay in all cases: Viability of human cancer cell lines after 72 h of drug (GDSC screen)
# [1] = compound: Nc1ccn([C@@H]2O[C@H](CO)[C@@H](O)[C@@H]2O)c(=O)n1 [Cytarabine]; settings: top dose 2 µM
# Description: (§1)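 Human cancer cell lines in 384-well plates, medium with 10% serum, drug for 72 h over a 256-fold dose range (nine 2-fold or five 4-fold steps up to the top dose). Adherent lines were fixed and stained with the nucleic acid dye Syto60, suspension lines read with resazurin; signal relative to control wells, capped at 0 and 100%. One two-parameter sigmoid per drug and line, fitted in a mixed model over all curves with the slope shared within a line.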
# [2] = compound: COc1cc(O)c2c(c1)/C=C/C[C@H](O)[C@H](O)C(=O)/C=C\C[C@H](C)OC2=O [(5Z)-7-Oxozeaenol]; settings: top dose 10 µM; top dose inferred
# Description: as §1
# [3] = compound: C[C@]1(c2nc3c(C(N)=O)cccc3[nH]2)CCCN1 [ABT-888]; settings: top dose 5 µM; top dose inferred
# Description: as §1
# [4] = compound: O=c1cc(-c2cccc3c2Sc2ccccc2S3)oc(N2CCOCC2)c1 [KU-55933]; settings: top dose 10 µM
# Description: as §1
# [5] = compound: CCn1c(-c2nonc2N)nc2cnc(Oc3cccc(NC(=O)c4ccc(OCCN5CCOCC5)cc4)c3)cc21 [GSK269962A]; settings: top dose 5 µM; screen: GDSC drug entry 1192; top dose inferred
# Description: as §1
# [6] = compound: Cc1cnc(-c2cnc(NCCNc3ccc(C#N)cn3)nc2-c2ccc(Cl)cc2Cl)[nH]1 [CHIR-99021]
# Description: as §1
# [7] = compound: Cc1ccc(F)c(NC(=O)Nc2ccc(-c3cccc4[nH]nc(N)c34)cc2)c1 [ABT-869]; settings: top dose 1.024 µM; top dose inferred
# Description: as §1
# [8] = compound: C/C=C(/C)C(=O)O[C@H]1C(C)=C2[C@H]([C@@H]1OC(=O)CCCCCCC)[C@@](C)(OC(C)=O)C[C@H](OC(=O)CCC)[C@@]1(O)[C@H]2OC(=O)[C@@]1(C)O [Thapsigargin]; settings: top dose 0.512 µM; top dose inferred
# Description: as §1
# [9] = compound: COc1nc(C)cnc1NS(=O)(=O)c1cccnc1-c1ccc(-c2nnco2)cc1 [Zibotentan]; settings: top dose 20 µM; top dose inferred
# Description: as §1
# [10] = compound: COc1cc(N2CCC(O)CC2)ccc1Nc1cc(Nc2ccccc2S(=O)(=O)C(C)C)c2cc[nH]c2n1 [MPS-1-IN-1]; settings: top dose 20 µM; top dose inferred
# Description: as §1
# [11] = compound: C=CC(=O)Nc1cc(-n2c(=O)ccc3cnc4ccc(-c5cn[nH]c5)cc4c32)ccc1C [QL-X-138]; settings: top dose 10.24 µM; top dose inferred
# Description: as §1
# [12] = compound: COc1cc2ncnc(-n3nc(-c4ccccn4)nc3N)c2cc1OC [CP466722]; settings: top dose 16 µM; top dose inferred
# Description: as §1
# [13] = top dose 10 µM, screen: GDSC drug entry 1241, top dose inferred
# [14] = top dose 2.56 µM, screen: GDSC drug entry 154
Cell Line,AUC [1],IC50 [1],AUC [2],IC50 [2],AUC [3],IC50 [3],AUC [4],IC50 [4],AUC [5],IC50 [5],"AUC [6, 13]","IC50 [6, 13]",AUC [7],IC50 [7],AUC [8],IC50 [8],AUC [9],IC50 [9],AUC [10],IC50 [10],"AUC [6, 14]","IC50 [6, 14]",AUC [11],IC50 [11],AUC [12],IC50 [12]
"NCI-H1105 (small cell lung carcinoma, suspension)",0.931,> 2 µM,0.819,4.44 µM,0.993,> 5 µM,0.992,> 10 µM,0.962,> 5 µM,0.993,> 10 µM,–,–,–,–,–,–,–,–,–,–,–,–,–,–
"NCI-H1341 (small cell lung carcinoma, suspension)",0.988,> 2 µM,0.706,2.14 µM,0.992,> 5 µM,0.967,> 10 µM,0.909,> 5 µM,0.827,4.94 µM,–,–,–,–,–,–,–,–,–,–,–,–,–,–
"NCI-N87 (stomach, adherent)",0.814,1.77 µM,0.881,> 10 µM,0.955,> 5 µM,0.978,> 10 µM,0.97,> 5 µM,0.877,> 10 µM,–,–,–,–,–,–,–,–,–,–,–,–,–,–
"OCI-LY7 (B-cell lymphoma, suspension)",0.975,> 2 µM,–,–,0.996,> 5 µM,0.826,3.94 µM,0.395,0.174 µM,–,–,–,–,–,–,–,–,–,–,–,–,–,–,–,–
"PA-TU-8988T (pancreas, adherent)",0.639,0.304 µM,0.482,0.557 µM,0.969,> 5 µM,–,–,0.879,> 5 µM,0.907,> 10 µM,0.982,> 1.02 µM,0.157,0.00282 µM,0.987,> 20 µM,0.963,> 20 µM,0.986,> 2.56 µM,0.757,3.54 µM,0.873,15.5 µM
"PANC-08-13 (pancreas, adherent)",0.825,1.68 µM,0.803,6.69 µM,0.97,> 5 µM,–,–,0.977,> 5 µM,0.955,> 10 µM,0.963,> 1.02 µM,0.43,0.0195 µM,0.972,> 20 µM,0.806,13.8 µM,0.969,> 2.56 µM,0.832,9.25 µM,0.878,> 16 µM
"PWR-1E (prostate, adherent)",0.767,0.738 µM,0.658,1.71 µM,0.98,> 5 µM,0.943,> 10 µM,0.807,2.54 µM,0.87,9.26 µM,–,–,–,–,–,–,–,–,–,–,–,–,–,–
"RMG-I (ovary, adherent)",0.957,> 2 µM,0.332,0.195 µM,0.979,> 5 µM,–,–,0.851,4.87 µM,0.9,> 10 µM,0.982,> 1.02 µM,0.47,0.0261 µM,0.97,> 20 µM,0.956,> 20 µM,0.969,> 2.56 µM,0.53,0.783 µM,0.777,7.55 µM
"SCC-4 (head and neck, adherent)",0.751,0.767 µM,0.831,8.06 µM,0.966,> 5 µM,–,–,0.942,> 5 µM,0.975,> 10 µM,0.978,> 1.02 µM,0.363,0.0124 µM,0.983,> 20 µM,0.95,> 20 µM,0.984,> 2.56 µM,0.931,> 10.2 µM,0.978,> 16 µM
"SW1990 (pancreas, adherent)",0.835,1.66 µM,0.724,3.06 µM,0.946,> 5 µM,–,–,0.961,> 5 µM,0.983,> 10 µM,0.978,> 1.02 µM,0.159,0.00227 µM,0.985,> 20 µM,0.985,> 20 µM,0.985,> 2.56 µM,0.908,> 10.2 µM,0.975,> 16 µM
"U-266 (myeloma, semi-adherent)",0.929,> 2 µM,0.74,3.95 µM,0.968,> 5 µM,0.982,> 10 µM,0.938,> 5 µM,–,–,–,–,–,–,–,–,–,–,–,–,–,–,–,–
"VMRC-MELG (melanoma, adherent)",0.932,> 2 µM,0.848,7.95 µM,0.966,> 5 µM,–,–,0.988,> 5 µM,0.852,8.33 µM,0.979,> 1.02 µM,0.387,0.0154 µM,0.987,> 20 µM,0.921,> 20 µM,0.973,> 2.56 µM,0.972,> 10.2 µM,0.952,> 16 µM
"WM278 (melanoma, adherent)",0.761,0.797 µM,0.511,0.672 µM,0.984,> 5 µM,–,–,0.895,> 5 µM,0.779,4.63 µM,0.98,> 1.02 µM,0.246,0.00532 µM,0.975,> 20 µM,0.857,19.6 µM,0.977,> 2.56 µM,0.984,> 10.2 µM,0.872,> 16 µM

# Lines with a small IC50 respond at low doses; a limit (>, <) means that the fit lies beyond the doses tested. AUC, from the same fit, is the share of area under the viability curve across the 256-fold dose range; it is 1 without any effect and falls as sensitivity rises. For part of these data: Where the top dose is marked as inferred, it comes from the curve model; the source does not state it. For part of these data: Drugs with an entry number were screened twice under separate entries, and the two screens often disagree.
